# Experimental data taken from the supplement of paper PMC4723716.
# ± gives the uncertainty stated by the source. Over roughly 9,900 compounds, “viability index relative to DMSO control” has its median near 1; the lowest 2% begin near 0.85. The list shows a part of the results.
# Tested on: Plasmodium falciparum NF54 stage V gametocytes
# Test: viability index relative to DMSO control (fraction); higher = less gametocyte killing
# Details: 2.5 µM, library set: Broad Institute DOS, incubation time: 72 h
# Outline: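 P. falciparum NF54 stage V gametocytes (serum-free medium, 0.75% gametocytemia, 1.25% hematocrit) were exposed to compound at 2.5 µM for 72 hr at 37°C under low oxygen, then stained with MitoTracker Red CMXRos and saponin for one to two hours. Red particles of 20–70 µm2 in one field per well were counted, and the viability index is that count scaled to the plate mean of solvent-only wells.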
row,SMILES,viability index
1,CN1[C@H](CO)[C@@H]2c3ccccc3N(C(=O)Nc3cc(F)ccc3F)C[C@@H]21,0.965 ± 0.081
2,C[C@H](CO)N1C[C@H](C)[C@@H](CN(C)C(=O)Nc2cccc(C(F)(F)F)c2)OCc2ccccc2-c2ccccc2C1=O,1.03 ± 0.062
3,C[C@H](CO)N1C[C@H](C)[C@H](CN(C)S(=O)(=O)c2cccc(C#N)c2)OCc2cn(nn2)CCCC1=O,1.08 ± 0.03
4,COCCN(C[C@H]1[C@H](c2ccccc2)[C@H](CO)N1C(C)=O)C(=O)c1cccnc1,1.02 ± 0.032
5,COc1ccc2c3c([nH]c2c1)[C@H](CO)N(C[C@]31CCN(Cc2cc(on2)-c2ccccc2)CC1)C(C)=O,1.02 ± 0.026
6,C[C@H](CO)N1C[C@H](C)[C@H](CN(C)Cc2cccc3c2OCCCO3)OCc2ccccc2-c2ccccc2C1=O,1.04 ± 0.039
7,Cc1ccc(S(=O)(=O)Nc2ccc3c(c2)C(=O)N(C)[C@@H]2CC[C@@H](CC(=O)NCCc4ccncc4)O[C@@H]2CO3)cc1,0.9542 ± 0.0036
8,CCS(=O)(=O)N1[C@H](CO)[C@H](c2ccc(C#CCC3CCCC3)cc2)[C@@H]1C#N,1.05 ± 0.049
9,COc1ccccc1C#Cc1ccc([C@H]2[C@H]3CN(C(=O)C4CCC4)CCCCN3[C@H]2CO)cc1,0.971 ± 0.013
10,CCN(C[C@H]1[C@H](c2ccccc2)[C@@H](CO)N1C(C)=O)C(=O)NC1CCCC1,1.04 ± 0.11
11,Cc1noc(C)c1NC(=O)Nc1ccc2c(c1)C(=O)N(C)[C@@H]1CC[C@H](CC(=O)N[C@@H]3CCN(Cc4ccccc4)C3)O[C@@H]1CO2,1.09 ± 0.097
12,COCCN(C[C@@H]1[C@@H](c2ccccc2)[C@H](CO)N1C(C)=O)C(=O)c1cccnc1,1.01 ± 0.012
13,CC(C)(C)[S@@](=O)N1Cc2cc(C(=O)NCCc3ccncc3)nc(-c3cccc(-c4cccc(C#N)c4)c3)c2[C@H]1CCO,1.06 ± 0.084
14,CN1c2ccc(C#Cc3ccccc3F)cc2[C@H]2[C@H](CCN2C(=O)c2cnccn2)[C@H]1CO,1.022 ± 0.0037
15,C[C@@H]1CN([C@H](C)CO)C(=O)c2cc(-c3cccc(C(=O)N(C)C)c3)cnc2O[C@H]1CN(C)C(=O)Cc1ccccn1,0.974 ± 0.024
16,Cc1noc(C)c1S(=O)(=O)N(C)C[C@@H]1Oc2c(NC(=O)c3ccc(-c4nccs4)cc3)cccc2C(=O)N([C@H](C)CO)C[C@@H]1C,0.978 ± 0.068
17,CC(C)NC(=O)N1[C@H](CO)[C@@H](c2ccccc2)C12CN(C(=O)Cc1cccnc1)C2,1.06 ± 0.038
18,CN(C)C(=O)c1cccc(-c2ccc([C@@H]3[C@H](CO)N4CCCCN(CC5CCOCC5)C[C@@H]34)cc2)c1,1.09 ± 0.05
19,CC(=O)NC[C@H]1[C@@H](c2ccc(C#CC(C)C)cc2)[C@@H](CO)N1Cc1ccccn1,1.01 ± 0.082
20,Cc1ccccc1-c1ccc2c(c1)O[C@H](CN(C)C(=O)Nc1ccc(C(F)(F)F)cc1)[C@H](C)CN([C@@H](C)CO)S2(=O)=O,1.09 ± 0.089
21,O=C(C1CCOCC1)N1CC(=O)N2[C@H](CO)[C@@H](c3ccc(/C=C/c4ccccc4)cc3)[C@H]2C1,0.972 ± 0.028
22,CO[C@H]1CN(C)C(=O)c2ccc(NC(=O)c3cc(C)on3)cc2OC[C@H](C)NC[C@H]1C,0.98 ± 0.029
23,CCOC(=O)CCCCCC(=O)Nc1ccc2c(c1)C(=O)N([C@@H](C)CO)C[C@H](C)[C@H](CN(C)C(=O)Nc1ccc(C(F)(F)F)cc1)OCCCC[C@H](C)O2,1.052 ± 0.0074
24,CCCC#Cc1ccc([C@@H]2[C@@H](CO)N3C(=O)CN(S(=O)(=O)c4ccccc4C)C[C@H]23)cc1,0.99 ± 0.01

row,SMILES,viability index
1,CC(C)c1cn(CC[C@H]2CC[C@@H](NS(=O)(=O)c3ccc(F)cc3)[C@H](CO)O2)nn1,1.13 ± 0.1
2,O=C(C[C@@H]1C[C@H]2c3cc(NC(=O)NC4CCCC4)ccc3O[C@H]2[C@@H](CO)O1)NCc1ccccc1F,1.11 ± 0.13
3,O=C(Cc1cccnc1)N1CC(=O)N2[C@@H](CO)[C@H](c3ccc(C4=CCCCC4)cc3)[C@@H]2C1,0.946 ± 0.03
4,CO[C@H]1CC[C@H]2CCOc3ccc(C#N)cc3C(=O)N(C)C[C@H](c3ccccc3)CC(=O)N(C)C[C@@H]1O2,1.06 ± 0.056
5,CO[C@H](CN(C)C(=O)C1CCOCC1)[C@@H](C)CN([C@@H](C)CO)S(=O)(=O)c1ccccc1,1.04 ± 0.028
6,CO[C@H]1CC[C@@H]2CCOc3c(C#N)cccc3C(=O)N(C)C[C@@H](OC)[C@H](C)C(=O)N(C)C[C@H]1O2,1.02 ± 0.093
7,COc1cccc(-c2ccc3c(c2)[C@@H]2[C@@H](CCN2S(=O)(=O)C2=NC(C)C=N2)[C@@H](CO)N3C)c1 (stereo not given in full),1.11 ± 0.084
8,COc1ccc(NC(=O)N2C[C@H](O)COC[C@H]3O[C@@H](CC(=O)N4CCCCC4)CC[C@@H]32)cc1,0.996 ± 0.018
9,COCCNC(=O)C[C@H]1CC[C@H]2[C@@H](COC[C@H](O)CN2Cc2ccc(Cl)c(Cl)c2)O1,1.02 ± 0.11
10,COc1ccc2c3c([C@@H](CO)N(Cc4ccccc4)C[C@]33CN(CC4CC4)C3)n(C)c2c1,0.893 ± 0.22
11,COc1ccc(C[C@@H]2CCn3cc(nn3)COCCCNC2=O)cc1,0.963 ± 0.13
12,O=C(NCC[C@@H]1CC[C@H](NC(=O)c2ccccc2F)[C@@H](CO)O1)c1cnccn1,0.998 ± 0.067
13,COc1ccccc1CNC(=O)C[C@H]1CC[C@@H]2[C@H](COc3ccc(NC(C)=O)cc3C(=O)N2C)O1,1.01 ± 0.16
14,CC(C)NC(=O)N[C@H]1CC[C@@H](CC(=O)NCCCN(C)C)O[C@H]1CO,0.977 ± 0.16
15,COc1ccc(C[C@H]2CCn3nncc3COC[C@H](c3ccccc3)NC2=O)cc1,1.01 ± 0.042
16,C/C=C/c1ccc2c(c1)O[C@H](CN(C)C(=O)Nc1ccc(OC)cc1)[C@H](C)CN([C@@H](C)CO)S2(=O)=O,0.988 ± 0.013
17,Cn1cnc(S(=O)(=O)N[C@H]2CC[C@@H](CC(=O)NCC3CCCCC3)O[C@H]2CO)c1,0.957 ± 0.054
18,O=C(CC(F)(F)F)N1C[C@@H]2[C@H](c3ccccc31)[C@@H](CO)N2C(=O)C1CCCCC1,1.02 ± 0.016
19,C[C@@H]1CCCCO[C@H](CN(C)C(=O)C2CCCCC2)[C@H](C)CN([C@@H](C)CO)C(=O)c2cc(NS(=O)(=O)c3ccccc3)ccc2O1,1.12 ± 0.14
20,CCCNC(=O)N1[C@H](CO)[C@H](c2ccccc2-c2ccc(OC)cc2)[C@@H]1C#N,1.11 ± 0.05
21,COc1ccc(NC(=O)N(C)C[C@@H]2OCCCC[C@@H](C)Oc3ccc(NC(=O)c4ccncc4)cc3C(=O)N([C@@H](C)CO)C[C@H]2C)cc1,1.05 ± 0.044
22,C[C@@H]1CN([C@@H](C)CO)C(=O)CCCn2nncc2CO[C@@H]1CN(C)Cc1cccc2c1OCCCO2,1.06 ± 0.03
23,C[C@@H]1CCCCO[C@H](CN(C)S(=O)(=O)c2cn(C)cn2)[C@H](C)CN([C@H](C)CO)C(=O)c2cc(N(C)C)ccc2O1,1.05 ± 0.021
24,COc1cccc(S(=O)(=O)N2C[C@H](O)COC[C@@H]3O[C@@H](CC(=O)NCCCN4CCOCC4)CC[C@H]32)c1,0.9917 ± 0.008

row,SMILES,viability index
1,N#C[C@H]1[C@@H](c2ccccc2C2=CCCC2)[C@H](CO)N1C(=O)Cc1ccncc1,1.07 ± 0.13
2,CN(C)C(=O)c1cccc(-c2ccc([C@@H]3[C@@H]4CN(Cc5ccccc5F)C[C@H]3N4)cc2)c1,0.977 ± 0.016
3,CO[C@@H]1CN(C)C(=O)c2cc(NC(=O)C3CCCCC3)ccc2OC[C@H](C)N(Cc2cccnc2)C[C@@H]1C,1.12 ± 0.035
4,COc1ccc2c3c([C@H](CO)N(C[C@]33CCN(CC4CC4)CC3)C(=O)c3ccncc3)n(C)c2c1,1.06 ± 0.035
5,C/C=C/c1ccc2n(c1=O)C[C@H]1[C@H](CO)[C@@H](C(=O)Nc3nccs3)N(Cc3cc(F)ccc3F)[C@@H]21.C/C=C\c1ccc2n(c1=O)C[C@H]1[C@H](CO)[C@@H](C(=O)Nc3nccs3)N(Cc3cc(F)ccc3F)[C@@H]21,1.07 ± 0.056
6,CCCNC(=O)N1CC2(C1)[C@H](c1ccccc1)[C@@H](CO)N2C(=O)CC1CC1,1.11 ± 0.072
7,COc1cccc(C#Cc2ccc([C@H]3[C@@H](C#N)N[C@@H]3CO)cc2)c1,1.04 ± 0.026
8,C[C@@H]1CCCCO[C@@H](CN(C)C(=O)Nc2ccccc2)[C@H](C)CN([C@H](C)CO)C(=O)c2cc(NC(=O)Nc3ccccc3)ccc2O1,1.09 ± 0.059
9,CC(C)[C@@H]1COCc2cn(nn2)CCC[C@H](C)C(=O)N1,1.02 ± 0.2
10,COc1ccc2c3c([nH]c2c1)[C@@H](CO)N(CC1CCCCC1)C[C@]31CN(C1)C(=O)C1CCOCC1,1.02 ± 0.07
11,C[C@@H]1CN([C@@H](C)CO)C(=O)c2ccccc2-c2ccccc2CO[C@H]1CN(C)C(=O)[C@@H](Cc1ccccc1)N(C)C,1.042 ± 0.0029
12,O=S(=O)(c1ccccc1)N1C[C@@H]2[C@H](c3ccccc31)[C@H](CO)N2Cc1ccccn1,1.055 ± 0.0016
13,O=C(Nc1ccc(C(F)(F)F)cc1)N[C@@H]1C=C[C@H](CC(=O)N2CCCCC2)O[C@H]1CO,1.06 ± 0.12
14,COc1ccc(S(=O)(=O)Nc2cccc3c2O[C@@H](CN(C)CC2CCCCC2)[C@H](C)CN([C@@H](C)CO)C3=O)cc1,0.926 ± 0.077
15,COc1ccc(CNC(=O)C[C@@H]2CC[C@@H](NC(=O)CN(C)C)[C@H](CO)O2)cc1,0.968 ± 0.016
16,COc1ccccc1CNC(=O)C[C@H]1C[C@@H]2c3cc(NC(=O)C4CCC4)ccc3O[C@@H]2[C@@H](CO)O1,1.13 ± 0.054
17,COc1ccc(S(=O)(=O)N(C)C[C@H]2Oc3ccc(N(C)C)cc3CC(=O)N([C@@H](C)CO)C[C@H]2C)cc1,1 ± 0.084
18,COCC(=O)N1CC2(C1)[C@@H](c1ccc(-c3cccc(F)c3)cc1)[C@@H](CO)N2C(=O)C1CC1,1.06 ± 0.032
19,COc1ccc(S(=O)(=O)N(C)C[C@H]2Oc3ccc(N(C)C)cc3CC(=O)N([C@H](C)CO)C[C@@H]2C)cc1,0.945 ± 0.13
20,CC[C@@H]1C/C=C\C[C@@H](C(C)C)NC(=O)CCC(=O)N1,1.04 ± 0.07
21,C/C=C/c1ccc([C@@H]2[C@@H](CO)N(C(C)=O)[C@@H]2CN(CC)C(=O)CN(C)C)cc1,1.08 ± 0.027
22,O=C(c1cccc(F)c1)N1CC[C@@H]2[C@H](CO)Nc3ccc(C#CC4CC4)cc3[C@@H]21,1.04 ± 0.033
